Measured values taken from PubChem BioAssay AID485344 (National Center for Advancing Translational Sciences (NCATS), 2010).
“And” between values parts separate entries of the source, which are not always exact repeats. Equal entries are not always repeated. Screen size: about 340,000 compounds; about 6,900 (2%) were called active. Rule as the data show it: active = inhibition above about 30%; inactive = below that, where a call was filed. The entries are a selection whose mix differs from that of the whole data set. The source gives no active or inactive call for entries shown without one.

Biological target: D(2) dopamine receptor (Homo sapiens) (UniProt P14416)
Chain of UniProt P14416 (P14416 whole entry, looked up): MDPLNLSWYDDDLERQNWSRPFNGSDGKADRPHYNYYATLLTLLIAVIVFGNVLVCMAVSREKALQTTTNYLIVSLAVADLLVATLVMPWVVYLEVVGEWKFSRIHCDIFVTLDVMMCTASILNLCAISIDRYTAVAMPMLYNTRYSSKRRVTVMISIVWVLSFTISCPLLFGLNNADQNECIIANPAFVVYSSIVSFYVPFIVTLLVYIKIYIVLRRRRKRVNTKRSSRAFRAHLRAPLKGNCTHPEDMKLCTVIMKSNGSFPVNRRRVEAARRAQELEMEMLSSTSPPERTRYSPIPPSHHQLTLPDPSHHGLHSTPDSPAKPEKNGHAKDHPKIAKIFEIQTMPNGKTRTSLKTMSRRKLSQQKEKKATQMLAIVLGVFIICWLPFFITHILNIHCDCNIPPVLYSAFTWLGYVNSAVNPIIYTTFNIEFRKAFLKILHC
Test: HTS Assay for Allosteric Antagonists of the Human D2 Dopamine Receptor: Primary Screen for Antagonists; also: 0% is about no effect
Details: HEK293 TREx D2 cells, calcium flux, dopamine EC80; at 10 µM; stronger effect = higher value
Outline: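 Cells plated overnight at 30 C with tetracycline; no-wash calcium dye, 30–90 min RT; 10 s baseline; compound pinned; 180 s read; EC80 dopamine added; another 180 s read.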

For Cc1ccc(S(=O)(=O)N2CCCc3cc(NS(=O)(=O)c4ccc(F)c(C)c4)ccc32)cc1, which inhibition is on record?
Its inhibition is 3.99%.

For Cc1ccc(NCc2cccn2-c2nnc(N3CCC(C(=O)NC(C)C)CC3)s2)cc1, which inhibition is on record?
Its inhibition is 7.37%.

How did the inhibition turn out when COc1ccc(-c2cn3nc(N4CCC(C(=O)NCc5ccccc5F)CC4)sc3n2)cc1 was run?
The inhibition was 7%.

COc1ccc(S(N)(=O)=O)cc1C(=O)NCCCN1CCN(c2ccccc2OC)CC1 was tested. Which inhibition did it give?
Its inhibition is active: 77.4%.

Which inhibition does the source give for Cc1ccc(/C=N/NC(=O)c2nnn(-c3nonc3N)c2-c2cccs2)cc1 here?
Its inhibition is active: 32%.

Cc1ccc(S(=O)(=O)c2cn(CC(=O)Nc3ccc(C)c(Cl)c3)c3ccc(C)cc3c2=O)cc1 was tested. Which inhibition did it give?
The inhibition was -5.04%.

For COc1cccc(C(=O)NCCSc2c(-c3ccc(F)cc3)[nH]c3ccccc23)c1OC, which inhibition is on record?
The inhibition was -0.692%.

For O=C1CN(C(=O)c2ccc(S(=O)(=O)N3CCCCC3)cc2)C(c2ccc(F)cc2)c2cc(F)ccc2N1 (centres undefined), which inhibition is on record?
Its inhibition is -3.93%.

Cc1ccc(CNC(=O)C2CCCN(S(=O)(=O)c3ccc4c(c3)oc(=O)n4C)C2)cc1 (centres undefined) was tested. Which inhibition did it give?
The inhibition was -15.4%.

For Cc1cc(C)cc(-n2nnc(-c3nc(-c4ccc5c(c4)OCO5)no3)c2C)c1, which inhibition is on record?
The inhibition was 6.24%.

Which inhibition does the source give for COc1cc2c(=O)n(CCC(=O)NCC3CCCO3)c(=O)n(CC(=O)Nc3ccc(C)cc3)c2cc1OC (centres undefined) here?
Its inhibition is -14.4%.

Which inhibition does the source give for CCC(=O)N1c2ccc(S(=O)(=O)N3CCN(c4ccccc4)CC3)cc2CC1C (centres undefined) here?
Its inhibition is 12%.

With CC(=O)c1ccc(NC(=O)c2cn3c4c(ccc(Cl)c4c2=O)OC(C)C3)cc1 (centres undefined) as the compound, how does the inhibition read?
Its inhibition is -3.23%.

For Cc1ccc(C(=O)NCCn2c(C)cc3ccccc32)cc1C, which inhibition is on record?
Its inhibition is -0.623%.

For CCOc1ccccc1/C=C/c1onc(C)c1S(=O)(=O)N1CCC(C(=O)N(CC)CC)CC1, which inhibition is on record?
The inhibition was 9.79% and active: 56.4%.

With O=C1Nc2c(c(=O)[nH]c(=O)n2-c2ccccc2)C1(NS(=O)(=O)c1ccc(Cl)cc1)C(F)(F)F (centres undefined) as the compound, how does the inhibition read?
Its inhibition is 1.51%.

CCCOc1ccc(-c2nn(-c3ccccc3)cc2C2NC(=O)NC(C)=C2C(=O)OC(C)C)cc1 (centres undefined) was tested. Which inhibition did it give?
The inhibition was 5.58%.

For Cc1ccc(NC(=O)Cn2c(=O)n(CCCCCC(=O)NCc3ccc(F)cc3)c(=O)c3sccc32)cc1C, which inhibition is on record?
Its inhibition is -16.9%.

With O=C(Cc1ccc(F)cc1)NC1CC(=O)N(c2ccccc2)C1 (centres undefined) as the compound, how does the inhibition read?
Its inhibition is -11.6%.

With COc1cc(-c2nnc(SCC(=O)NCc3ccccc3Cl)o2)cc(OC)c1OC as the compound, how does the inhibition read?
The inhibition was 2.18%.

CCOc1ccc(Cn2nnc3c(=O)[nH]c(C4CCN(C(=O)c5ccccc5)CC4)nc32)cc1 was tested. Which inhibition did it give?
Its inhibition is -3.1%.

How did the inhibition turn out when COc1ccc(-c2cnnn2-c2ccc(NC(=O)c3ccc(S(=O)(=O)N(C)C)cc3)cc2)cc1 was run?
The inhibition was 0.603%.

How did the inhibition turn out when COc1ccc(-c2cnnn2-c2ccc(NC(=O)c3c(F)cccc3F)cc2)cc1 was run?
Its inhibition is -0.285%.

CCOC(=O)c1cnc2cc(-c3ccc(Cl)cc3)nn2c1-c1ccccc1 was tested. Which inhibition did it give?
The inhibition was -9.84%.

Cc1ccc(C)c(N2CCN(CCCNC(=O)Cn3c(=O)c4cccn4c4cccnc43)CC2)c1 was tested. Which inhibition did it give?
The inhibition was active: 62.7%.

With COc1ccc(C)cc1NC(=O)c1cc(S(=O)(=O)NC2CCCCCC2)ccc1F as the compound, how does the inhibition read?
Its inhibition is -7.7%.

How did the inhibition turn out when COc1ccc(Cn2c(=O)[nH]c3cc(C(=O)N4CCN(c5cc(C)ccc5C)CC4)ccc3c2=O)cc1 was run?
The inhibition was -10.6%.

CCC(CC)c1nn2c(=O)cc(COc3ccc(NC(=O)c4ccccc4Cl)cc3)nc2s1 was tested. Which inhibition did it give?
Its inhibition is -9.72%.

Which inhibition does the source give for NC(=O)c1cc(S(=O)(=O)N2CCN(c3ccc(F)cc3)CC2)cs1 here?
The inhibition was -5.14%.

With Cc1ccccc1CNC(=O)C1CCN(c2nn3cc(-c4ccc(F)cc4)nc3s2)CC1 as the compound, how does the inhibition read?
Its inhibition is -4.71%.

CC1CCCCN1CCCNC(=O)Cn1ncc2c([nH]c3ccccc32)c1=O (centres undefined) was tested. Which inhibition did it give?
Its inhibition is -7.68%.

Cc1cccc(CNS(=O)(=O)c2ccc3[nH]c(=O)ccc3c2)c1 was tested. Which inhibition did it give?
The inhibition was -1.83%.

How did the inhibition turn out when Cc1ccccc1NC(=O)Nc1nnc(CC(=O)NCc2ccccc2)s1 was run?
The inhibition was active: 31.5%.

How did the inhibition turn out when Cc1cc(C=O)c(C)n1-c1ccc(Cl)c(C(=O)O)c1 was run?
Its inhibition is active: 37%.

Which inhibition does the source give for COc1ccccc1CNC(=O)c1ccc(N2CCCC2)c(NC(=O)NCc2ccccc2)c1 here?
The inhibition was -15.4%.

Which inhibition does the source give for CCN(CC)S(=O)(=O)c1nnc(NC(=O)COc2ccccc2Cl)s1 here?
The inhibition was -12.3%.

Which inhibition does the source give for CCc1nn(CC(=O)NCCCN2CCc3ccccc3C2)c(=O)c2cc3sccc3n12 here?
Its inhibition is active: 79.1%.

CCOc1ccc(C(=O)Nc2cccc(NC(=O)c3ccco3)c2)cc1Cl was tested. Which inhibition did it give?
The inhibition was -0.94%.

For Cn1c(=O)c2c(nc(N/N=C/c3ccco3)n2C)n(C)c1=O, which inhibition is on record?
Its inhibition is active: 52.3%.

How did the inhibition turn out when O=C(COc1ccccc1F)OCc1cc(=O)n2nc(-c3cccs3)sc2n1 was run?
The inhibition was -17.7%.

For Cc1ccc(NC(=S)NC2CCN(Cc3ccccc3)CC2)cc1C, which inhibition is on record?
Its inhibition is active: 77.6%.

Which inhibition does the source give for CCC(C(=O)N1CCN(c2ccccc2)CC1)n1nc(C)n2c(cc3sccc32)c1=O (centres undefined) here?
Its inhibition is 8.23%.

Which inhibition does the source give for CCc1nn2c(=O)cc(COC(=O)CNC(=O)c3ccccc3)nc2s1 here?
Its inhibition is 5.08%.

Which inhibition does the source give for O=C(Nc1ccc(Br)cc1)C1CCN(c2cnccn2)CC1 here?
The inhibition was -27.2%.

Which inhibition does the source give for COc1cc(OC)c(Nc2cc(C)nc3ncnn23)cc1Cl here?
Its inhibition is -3.16%.

With COc1ccccc1N1CCN(S(=O)(=O)c2c(C)sc3ncn(CC(=O)Nc4cccc(Cl)c4)c(=O)c23)CC1 as the compound, how does the inhibition read?
Its inhibition is -0.231%.

With COC(=O)c1c(-c2ccc(Cl)cc2)noc1N1CCN(c2ccc(OC)cc2)CC1 as the compound, how does the inhibition read?
The inhibition was 2.17%.

Which inhibition does the source give for COc1ccc(C2CC(c3c(O)n(C4CCCCC4)c(=O)[nH]c3=O)=Nc3ccccc3S2)cc1 (centres undefined) here?
Its inhibition is 14.1%.

With Cc1ccc2c(c1)NC(=O)C(CC(=O)Nc1cc(Cl)ccc1C)O2 (centres undefined) as the compound, how does the inhibition read?
The inhibition was 12.4%.

Cc1n[nH]c(C)c1CCC(=O)N/N=C/c1cccc([N+](=O)[O-])c1 was tested. Which inhibition did it give?
The inhibition was active: 45.5%.

With COc1ccc(C(=O)NCc2nnc(SCC(=O)Nc3ccccc3)n2-c2ccc(F)cc2)cc1 as the compound, how does the inhibition read?
Its inhibition is 0.484%.

Which inhibition does the source give for COc1ccc(OC)c(NC(=O)CSc2ccnc(=O)[nH]2)c1 here?
The inhibition was 16.3%.

For COc1ccc(NC(=O)c2c(NCc3ccc(C)o3)sc3c2CCC(C)C3)c(OC)c1 (centres undefined), which inhibition is on record?
Its inhibition is 3.7%.

For COc1ccccc1-c1cc(C(=O)Nc2sc3c(c2C#N)CCCC3)no1, which inhibition is on record?
Its inhibition is -12.9%.

For Cn1c(=O)oc2cc(S(=O)(=O)CCC(=O)N3CCN(c4ccccc4)CC3)ccc21, which inhibition is on record?
The inhibition was -6.26%.

With Clc1ccc(N2CCN(c3ncnc4c3nc3n4CCCC3)CC2)cc1 as the compound, how does the inhibition read?
The inhibition was -13.3%.

How did the inhibition turn out when COc1cccc(N2CCN(C(=O)C3CCN(S(=O)(=O)c4ccc5c(c4)oc(=O)n5C)CC3)CC2)c1 was run?
Its inhibition is 8.24%.

With COc1ccc2c(c1)CC(C(=O)NCCCN1CCN(c3ccc(F)cc3)CC1)CO2 (centres undefined) as the compound, how does the inhibition read?
The inhibition was 1.46%.

Which inhibition does the source give for COc1cccc(C(=O)Nc2cc3c(cc2C(=O)c2ccc(C)cc2)OCCO3)c1 here?
The inhibition was -6.12%.
